B1: Caulobacter ParB omega fusion; a variant is named by its letters at X, in order, B8GW30 (parent)
chain: MESVVVGEPGMSEGRRGLGRGLSALLGEVDAAPAQAPGEQLGGSREAPIEILQRNPDQPRRTFREEDLEDLSNSIREKGVLQPILVRPSPDTAGEYQIVAGERAWRAAQRAGLKTVPIMVRELDDLAVLEIGIIENVQRADLNVLEEALSYKVLMEKFERTQENIAQTIGKSXSHVANXMRLLXLPDEVQSYLVSGELTAXHARAIAAAADPVALAKQIIEGGLSVRETEALARKAPNLSAGKSKGGRPPRVKDTDTQALESDLSSVLGLDVSIDHRGSTGTLTITYATLEQLDDLCNRLTRGI

The full ranking holds about 81,000 sequences; the median of “one-hybrid fitness for binding NBS DNA” is about -0.1, and the highest 2% start at about 0.36. Some of the results follow.

The variants in this assay derive from B1. The experiment in a line: one-hybrid fitness for binding NBS DNA (the Noc-binding site; scaled: cognate 1, non-cognate 0); higher = stronger binding. To be noted: with NBS DNA site. The gist of the method: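 Fitness here means the log change in variant-to-wild-type read ratio between plasmids sequenced before and after selection. That scale was set so cognate equals 1 and non-cognate equals 0. The selection was a bacterial one-hybrid screen of Caulobacter ParB libraries, four specificity codons randomised, in E. coli USO carrying a HIS3 reporter with the site 19 bp from the promoter, grown 48 hours at 37°C on M9-minus-histidine with 0.1 mM IPTG and 5 mM 3-AT.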
With LNMG, the “one-hybrid fitness for binding NBS DNA” value was no more than 0.2.
The value for EHIS was no more than 0.2; that for RQQQ was no more than 0.2; that for NNGD was no more than 0.2.
The value for ESKC was no more than 0.2; that for ARLY was no more than 0.2.
Regarding EVMC, the “one-hybrid fitness for binding NBS DNA” value is no more than 0.2.
The value for RFAR was 0.242.
As to ADQN, the “one-hybrid fitness for binding NBS DNA” value was no more than 0.2.
Consider DRAQ, for which the “one-hybrid fitness for binding NBS DNA” value was no more than 0.2.
The result for IWNR reads no more than 0.2.
The value for RWWR was no more than 0.2.
Turning to RDIT, the “one-hybrid fitness for binding NBS DNA” value was no more than 0.2.
On to NPKI, for which the “one-hybrid fitness for binding NBS DNA” value is no more than 0.2.
The value for NSFV was no more than 0.2; that for KRGN was no more than 0.2; that for DPIT was no more than 0.2.
In the case of KILS, the “one-hybrid fitness for binding NBS DNA” value was no more than 0.2.
The value for TQCK was no more than 0.2; that for FLWG was no more than 0.2.
Take RSSL: the “one-hybrid fitness for binding NBS DNA” value was no more than 0.2.
Turning to LWTR, the “one-hybrid fitness for binding NBS DNA” value is no more than 0.2.
The value for EPVN was no more than 0.2.
The result for HTSL reads no more than 0.2.
YPDT: the “one-hybrid fitness for binding NBS DNA” value was no more than 0.2.
The result for KTWD reads no more than 0.2; that for KAGM, no more than 0.2.
ACDR: the “one-hybrid fitness for binding NBS DNA” value was no more than 0.2.
The result for QGLS reads no more than 0.2; that for STQW, no more than 0.2; that for VQRR, 0.248.
For CYNK, the “one-hybrid fitness for binding NBS DNA” value was no more than 0.2.
On to LGQN, for which the “one-hybrid fitness for binding NBS DNA” value is no more than 0.2.
Turning to DFFV, the “one-hybrid fitness for binding NBS DNA” value was no more than 0.2.
The value for VQDV was no more than 0.2.
The result for ADRS reads no more than 0.2; that for LVYG, no more than 0.2.
The result for STTP reads no more than 0.2.
Regarding VYRT, the “one-hybrid fitness for binding NBS DNA” value was no more than 0.2.
Consider VHFM, for which the “one-hybrid fitness for binding NBS DNA” value was no more than 0.2.
The result for FGVN reads 0.298; that for TAHW, no more than 0.2; that for CLSG, no more than 0.2.
The result for GAEW reads no more than 0.2; that for PRQI, no more than 0.2.
The value for YSKC was no more than 0.2; that for MNSV was no more than 0.2.
Take GVYI: the “one-hybrid fitness for binding NBS DNA” value is no more than 0.2.
The value for HLWR was no more than 0.2; that for TYVK was no more than 0.2; that for PHHK was no more than 0.2.
For APVT, the “one-hybrid fitness for binding NBS DNA” value is no more than 0.2.
The value for IPMT was no more than 0.2; that for HTNA was no more than 0.2.
The value for YSEM was no more than 0.2.
For QMCP, the “one-hybrid fitness for binding NBS DNA” value is no more than 0.2.
The value for IYHS was no more than 0.2; that for QNTY was no more than 0.2.
For the variant RAWM, the “one-hybrid fitness for binding NBS DNA” value is no more than 0.2.
The result for HNEG reads no more than 0.2; that for IVGL, no more than 0.2.
The value for VMYD was no more than 0.2.
As to PDAS, the “one-hybrid fitness for binding NBS DNA” value is no more than 0.2.
The result for LNCG reads no more than 0.2; that for KHRG, no more than 0.2.
For RPDG, the “one-hybrid fitness for binding NBS DNA” value is no more than 0.2.
In the case of LQRT, the “one-hybrid fitness for binding NBS DNA” value was no more than 0.2.
The result for SGNS reads no more than 0.2; that for MQNP, no more than 0.2; that for RLGI, no more than 0.2.
The value for ARCE was no more than 0.2; that for NWRL was no more than 0.2.
The value for PGMN was no more than 0.2.
As to RPMD, the “one-hybrid fitness for binding NBS DNA” value was no more than 0.2.
The result for ESLD reads no more than 0.2; that for CRCK, no more than 0.2; that for NNPG, no more than 0.2.
The result for CASG reads no more than 0.2.
The result for ARPW reads no more than 0.2.
For the variant ACHS, the “one-hybrid fitness for binding NBS DNA” value was no more than 0.2.
The result for TPNA reads no more than 0.2; that for QAEN, no more than 0.2; that for RTTH, 0.24.
The result for MTVR reads no more than 0.2.
The value for WAEV was no more than 0.2.
For QPCR, the “one-hybrid fitness for binding NBS DNA” value is no more than 0.2.
The value for SVQS was no more than 0.2.
In the case of MTSM, the “one-hybrid fitness for binding NBS DNA” value is no more than 0.2.
The result for WRMR reads no more than 0.2.
The value for CQHG was no more than 0.2.
The result for ITFK reads no more than 0.2; that for KYND, no more than 0.2; that for EHPQ, no more than 0.2.
PGEW: the “one-hybrid fitness for binding NBS DNA” value was no more than 0.2.
The result for LPFK reads no more than 0.2; that for WTCT, no more than 0.2; that for DRRD, no more than 0.2.
The value for SRVQ was no more than 0.2; that for AVIG was no more than 0.2.
The value for LQPK was no more than 0.2.
SAAC: the “one-hybrid fitness for binding NBS DNA” value was no more than 0.2.
On to QELL, for which the “one-hybrid fitness for binding NBS DNA” value was no more than 0.2.
The value for LDDV was no more than 0.2; that for LPPR was no more than 0.2.
Regarding TTGM, the “one-hybrid fitness for binding NBS DNA” value was no more than 0.2.
The value for RNCW was no more than 0.2; that for LRDA was no more than 0.2; that for EMAW was no more than 0.2.
The result for VAQG reads no more than 0.2; that for TILS, no more than 0.2.
The result for AIPY reads no more than 0.2.
Regarding HVKK, the “one-hybrid fitness for binding NBS DNA” value was no more than 0.2.
With NTWR, the “one-hybrid fitness for binding NBS DNA” value is no more than 0.2.
The result for AYPG reads no more than 0.2; that for SHIV, no more than 0.2; that for YHGP, no more than 0.2.
On to ASIS, for which the “one-hybrid fitness for binding NBS DNA” value is no more than 0.2.
The value for SQER was no more than 0.2.
The value for SVTL was no more than 0.2; that for QIER was 0.219.
TEHG: the “one-hybrid fitness for binding NBS DNA” value was no more than 0.2.
MYDS: the “one-hybrid fitness for binding NBS DNA” value is no more than 0.2.
The value for QVAC was no more than 0.2; that for MQAR was no more than 0.2; that for YHKA was no more than 0.2.
As for PCTE, the “one-hybrid fitness for binding NBS DNA” value is no more than 0.2.
For SGQW, the “one-hybrid fitness for binding NBS DNA” value is no more than 0.2.
The value for TREM was no more than 0.2; that for PLYY was no more than 0.2; that for IQNG was no more than 0.2.
As for REYD, the “one-hybrid fitness for binding NBS DNA” value is no more than 0.2.
The value for WFRY was no more than 0.2.
The value for LHNG was no more than 0.2.
The value for QWTV was no more than 0.2; that for IKRY was no more than 0.2.
Regarding HTFS, the “one-hybrid fitness for binding NBS DNA” value is no more than 0.2.
The result for VGHS reads no more than 0.2.
The value for RLDW was no more than 0.2; that for IAER was no more than 0.2; that for ITHG was no more than 0.2.
The result for WLYS reads no more than 0.2; that for YKHG, no more than 0.2.
For YGSR, the “one-hybrid fitness for binding NBS DNA” value was no more than 0.2.
The result for KEYR reads no more than 0.2.
The value for IIRP was no more than 0.2; that for HLMV was no more than 0.2.
For IYKA, the “one-hybrid fitness for binding NBS DNA” value was no more than 0.2.
The result for SPRY reads no more than 0.2; that for HKQR, no more than 0.2; that for DSNL, no more than 0.2.
The result for RLYW reads no more than 0.2; that for YIKS, no more than 0.2; that for TREV, no more than 0.2.

These data come from a collection of fitness landscapes (doi:10.1016/j.celrep.2020.107928).
